The text below walks through data of paper PMC4336329 (PLoS ONE, 2015).

Among all 310,000 compounds or so, about 2,200 (0.71%) showed an effect of 50% or more. The effect is printed as a negative number. Some of the results follow.

Chain of human ether-à-go-go-related gene (hERG) potassium channel (Q12809 whole entry, looked up): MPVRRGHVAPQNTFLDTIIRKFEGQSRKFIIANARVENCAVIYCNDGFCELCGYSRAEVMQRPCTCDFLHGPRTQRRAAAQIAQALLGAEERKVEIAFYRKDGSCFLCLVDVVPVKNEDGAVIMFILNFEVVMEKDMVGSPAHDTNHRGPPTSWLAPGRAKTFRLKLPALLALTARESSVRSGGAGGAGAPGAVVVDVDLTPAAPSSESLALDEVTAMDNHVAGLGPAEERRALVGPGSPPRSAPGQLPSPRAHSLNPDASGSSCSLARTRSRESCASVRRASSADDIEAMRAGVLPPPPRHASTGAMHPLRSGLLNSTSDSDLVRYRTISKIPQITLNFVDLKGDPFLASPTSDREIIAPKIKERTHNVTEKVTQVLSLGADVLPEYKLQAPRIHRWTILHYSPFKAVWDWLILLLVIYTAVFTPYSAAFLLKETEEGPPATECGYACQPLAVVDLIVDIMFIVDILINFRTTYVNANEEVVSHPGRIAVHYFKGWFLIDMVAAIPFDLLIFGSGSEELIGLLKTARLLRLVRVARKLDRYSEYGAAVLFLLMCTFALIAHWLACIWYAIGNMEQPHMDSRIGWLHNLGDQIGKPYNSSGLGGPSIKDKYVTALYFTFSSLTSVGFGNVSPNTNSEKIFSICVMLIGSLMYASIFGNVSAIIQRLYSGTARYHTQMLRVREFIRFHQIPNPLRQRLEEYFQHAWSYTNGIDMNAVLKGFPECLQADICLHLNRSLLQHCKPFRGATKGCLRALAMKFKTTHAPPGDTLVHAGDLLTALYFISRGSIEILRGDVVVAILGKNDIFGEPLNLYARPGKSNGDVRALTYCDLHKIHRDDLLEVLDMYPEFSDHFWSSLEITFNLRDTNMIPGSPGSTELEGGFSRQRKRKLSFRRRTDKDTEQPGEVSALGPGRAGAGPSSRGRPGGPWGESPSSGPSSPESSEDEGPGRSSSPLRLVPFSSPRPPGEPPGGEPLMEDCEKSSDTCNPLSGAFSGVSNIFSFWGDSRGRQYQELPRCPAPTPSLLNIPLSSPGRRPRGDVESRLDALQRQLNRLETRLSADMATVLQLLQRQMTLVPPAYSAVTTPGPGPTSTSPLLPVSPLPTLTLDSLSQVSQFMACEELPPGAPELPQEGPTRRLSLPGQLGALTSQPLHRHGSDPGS

This assay has as its target human ether-à-go-go-related gene (hERG) potassium channel (human, UniProt Q12809). The experiment in a line: primary screen, population patch clamp on CHO cells stably expressing hERG.
On to `Cc1ccc(C(=O)NCC(=O)OCC(=O)/C=C2\N(C)c3ccccc3C2(C)C)cc1C`, for which the “hERG current change (%, negative = inhibition) at 1uM” value was -0.669%.

In the case of `CN1CCc2ccccc2C1C1CCNCC1` (stereo not drawn), the “hERG current change (%, negative = inhibition) at 1uM” value is 10.8%.

Consider `COc1ccc(Br)cc1/C=C/C(=O)NCC(=O)O`, for which the “hERG current change (%, negative = inhibition) at 1uM” value is reported as 16.4%.

Consider `O=C1CN=C(c2ccc(F)cc2)c2oc3ccccc3c2N1`, for which the “hERG current change (%, negative = inhibition) at 1uM” value is given as 9.77%.

Regarding `COCC(=O)N1CCc2ccc(NC(=O)c3ccccc3Cl)cc2C1`, the “hERG current change (%, negative = inhibition) at 1uM” value was found to be 22.7%.

As for `Cc1ccc2c(c1)N(CC(=O)NC1CCCCCC1)C(=O)c1cccnc1O2`, the “hERG current change (%, negative = inhibition) at 1uM” value is 4.26%.

For the compound `O=C(c1cc(-c2ccccc2)on1)N1CCc2ccccc2C1`, the “hERG current change (%, negative = inhibition) at 1uM” value is recorded as 14%.

Take `Cc1ccc(-n2c(C)nn(Cc3ccc([N+](=O)[O-])cc3)c2=O)cc1`: the “hERG current change (%, negative = inhibition) at 1uM” value is reported as 3.39%.

Take `CC1CC(C)CN(C(=O)c2cc3ccccc3o2)C1` (stereo not drawn): the “hERG current change (%, negative = inhibition) at 1uM” value is listed as 9.02%.

For the compound `NNC(=O)c1ccc(COCC(F)(F)C(F)F)cc1`, the “hERG current change (%, negative = inhibition) at 1uM” value is 15.2%.

For the compound `COc1ccc(C)cc1S(=O)(=O)N1CCN(C/C=C/c2ccccc2)CC1`, the “hERG current change (%, negative = inhibition) at 1uM” value was 6.03%.

Regarding `Cc1ccc(NC(=O)C2CCCN2S(=O)(=O)c2ccc(F)cc2)c(C)c1` (stereo not drawn), the “hERG current change (%, negative = inhibition) at 1uM” value was determined as 5.17%.

For the compound `Cc1csc(NC(=O)C(C)Oc2ccc(Br)cc2)n1` (stereo not drawn), the “hERG current change (%, negative = inhibition) at 1uM” value came to 2.19%.

For `CCOC(=O)CCCCCN(Cc1ccccc1)S(=O)(=O)c1ccc([N+](=O)[O-])cc1`, the “hERG current change (%, negative = inhibition) at 1uM” value amounted to 6.35%.

As to `CCCc1cc(C(=O)Nc2cc(Cl)ccc2O)no1`, the “hERG current change (%, negative = inhibition) at 1uM” value was found to be 9.85%.

For the compound `CCC(C)Sc1nc2c(cnn2-c2ccccc2)c(=O)[nH]1` (stereo not drawn), the “hERG current change (%, negative = inhibition) at 1uM” value was -3.47%.

As to `O=C(CSc1ncc(C(F)(F)F)cc1Cl)NCC1CCCO1` (stereo not drawn), the “hERG current change (%, negative = inhibition) at 1uM” value came to 7.28%.

As to `CCCNC(=O)Cn1nc(C(F)(F)F)cc1C`, the “hERG current change (%, negative = inhibition) at 1uM” value is listed as -5.38%.

Consider `O=C(CNc1ccccc1)N/N=C/c1cc([N+](=O)[O-])ccc1N1CCCC1`, for which the “hERG current change (%, negative = inhibition) at 1uM” value turned out to be 1.72%.

`CC(=O)N1CCN(C(=O)COC(=O)COc2ccc(C#N)cc2)CC1`: the “hERG current change (%, negative = inhibition) at 1uM” value amounted to 12%.

Turning to `CCCCC(=O)Nc1ccc(F)c(Cl)c1`, the “hERG current change (%, negative = inhibition) at 1uM” value was 4.13%.

Take `O=C(O)CCCC(=O)Nc1ccc(OCc2nc3ccccc3s2)cc1`: the “hERG current change (%, negative = inhibition) at 1uM” value was determined as 10.4%.

Turning to `CCOCCn1c(=O)c2c(nc3n2CCCN3CCc2ccccc2)n(C)c1=O`, the “hERG current change (%, negative = inhibition) at 1uM” value is -15.2%.

For the compound `CCOC(=O)c1c(C)[nH]c(NC(=O)NNC(=O)c2ccc(OC)cc2)c1C`, the “hERG current change (%, negative = inhibition) at 1uM” value is 4.57%.

`CCOC(=O)N1CCN(c2nc(-c3cccs3)cc(C(F)(F)F)n2)CC1`: the “hERG current change (%, negative = inhibition) at 1uM” value was found to be 22.8%.

With `O=C(N/N=C\C1C(=O)NC(=S)N(c2ccccc2)C1=O)c1ccc(O)cc1` (stereo not drawn), the “hERG current change (%, negative = inhibition) at 1uM” value came to 4.91%.

In the case of `CCOc1ccccc1CNC(=O)c1cc2occc2n1C`, the “hERG current change (%, negative = inhibition) at 1uM” value is given as 13%.

Regarding `CC(=O)/C(=C\N(C)C)Sc1ccc(Cl)cc1`, the “hERG current change (%, negative = inhibition) at 1uM” value came to 6.14%.

For the compound `Clc1cccc(N2CCN(c3nnnn3-c3ccccc3)CC2)c1`, the “hERG current change (%, negative = inhibition) at 1uM” value worked out at 2.33%.

In the case of `Cc1ccc(NC(=S)Nc2ccc3[nH]c(=O)[nH]c3c2)cc1`, the “hERG current change (%, negative = inhibition) at 1uM” value came out at 7.95%.

`CCOC(=O)C1CCN(CC(=O)N2CCc3ccccc32)CC1`: the “hERG current change (%, negative = inhibition) at 1uM” value came to 4.4%.

In the case of `NS(=O)(=O)c1ccc(N/N=C/c2ccccc2C(=O)O)c([N+](=O)[O-])c1`, the “hERG current change (%, negative = inhibition) at 1uM” value amounted to 1.32%.

In the case of `CCSc1nnc(C)c2ccccc12`, the “hERG current change (%, negative = inhibition) at 1uM” value is 18.6%.

Consider `CCc1nc(CNC(=O)C2CCC(=O)N(Cc3cccc(OC)c3)C2)no1` (stereo not drawn), for which the “hERG current change (%, negative = inhibition) at 1uM” value is 10.7%.

On to `COc1cc2c(cc1OC)CN(CCC(=O)c1ccc(Br)cc1)CC2`, for which the “hERG current change (%, negative = inhibition) at 1uM” value is -25.2%.

As for `CCOc1ccc(NC(=O)C2CCN(C(=O)NC3CCCCC3)CC2)cc1`, the “hERG current change (%, negative = inhibition) at 1uM” value is listed as 14.3%.

Turning to `CC(C)C(NC(=O)c1ccccc1NC(=O)c1ccco1)C(=O)O` (stereo not drawn), the “hERG current change (%, negative = inhibition) at 1uM” value is given as -4.22%.

For the compound `Cc1onc(-c2ccccc2)c1C(=O)N1CCN(S(=O)(=O)c2ccc3c(c2)OCCO3)CC1`, the “hERG current change (%, negative = inhibition) at 1uM” value is -4.03%.

Consider `O=C(CN1CCOCC1)c1cccc2ccccc12.O=C(O)C(=O)O`, for which the “hERG current change (%, negative = inhibition) at 1uM” value worked out at 6.74%.

For the compound `CC(C)Nc1ccccc1`, the “hERG current change (%, negative = inhibition) at 1uM” value was found to be 8%.

Regarding `COC(=O)c1ccn(CC(=O)NC2CCCCC2)n1`, the “hERG current change (%, negative = inhibition) at 1uM” value is 12%.

Consider `O=C(NCCN1CCOCC1)c1cccc(S(=O)(=O)N2CCCC2)c1`, for which the “hERG current change (%, negative = inhibition) at 1uM” value is listed as 9.82%.

With `O=C(O)COCC(=O)N1CCN(C2c3ccccc3-c3ccccc32)CC1`, the “hERG current change (%, negative = inhibition) at 1uM” value came to 12.4%.

In the case of `CCOc1ccc(S(=O)(=O)N2CCOCC2)cc1[N+](=O)[O-]`, the “hERG current change (%, negative = inhibition) at 1uM” value is listed as -8.15%.

`Cc1nc2cc(-c3ccccc3)sc2c(=O)n1N`: the “hERG current change (%, negative = inhibition) at 1uM” value is on record as 11.5%.

For `CC(=O)c1cccc(NC(=S)NCc2ccccc2)c1`, the “hERG current change (%, negative = inhibition) at 1uM” value stood at 15.3%.

`COc1cc2c(c(OC)c1OC)-c1ccc(NC(=O)c3ccc(F)cc3)c(=O)cc1[C@@H](NC(C)=O)CC2`: the “hERG current change (%, negative = inhibition) at 1uM” value turned out to be 8.22%.

For `CCOc1ccc(/C=N/NC(=O)C(=O)NCc2ccco2)cc1`, the “hERG current change (%, negative = inhibition) at 1uM” value is on record as 5.5%.

For the compound `CCOC(=O)N1CCN(C(=O)CSc2nc3c(c(=O)n2-c2ccccc2OC)SCC3)CC1`, the “hERG current change (%, negative = inhibition) at 1uM” value was determined as 1.84%.

In the case of `O=C(Oc1cccc(NC(=O)c2ccco2)c1)c1cccc(S(=O)(=O)N2CCCCC2)c1`, the “hERG current change (%, negative = inhibition) at 1uM” value turned out to be 9.46%.

Take `COc1ccc(C(=O)NC(=S)NC2CCSC2=O)cc1` (stereo not drawn): the “hERG current change (%, negative = inhibition) at 1uM” value is given as -7.49%.

For the compound `OCC(O)CN1CCCC1` (stereo not drawn), the “hERG current change (%, negative = inhibition) at 1uM” value is on record as 17.3%.

`COc1ccc(-c2nn(C)c3sc(C(=O)NCc4ccco4)cc23)cc1OC`: the “hERG current change (%, negative = inhibition) at 1uM” value stood at 11.6%.

Consider `C[NH+]1CCC2(CC1)C(C#N)=C(N)NC([S-])=C2C#N`, for which the “hERG current change (%, negative = inhibition) at 1uM” value is on record as -1.53%.

On to `COc1ccc(C)cc1-n1nnnc1SC/C(O)=C(\C#N)c1nc2ccccc2[nH]1`, for which the “hERG current change (%, negative = inhibition) at 1uM” value is listed as 3.8%.

As for `COc1ccc(Nc2nc3ccccc3nc2NS(=O)(=O)c2cccs2)c(OC)c1`, the “hERG current change (%, negative = inhibition) at 1uM” value is reported as 12.6%.

For `CCc1nnc(NC(=S)Nc2ccccc2)s1`, the “hERG current change (%, negative = inhibition) at 1uM” value was found to be 14.2%.

For the compound `O=C(NC1CCN(C(=O)C2CCCCC2)CC1)c1ccccc1`, the “hERG current change (%, negative = inhibition) at 1uM” value came out at 12.3%.

Consider `Cc1ccc(-n2ncc3c2CC(C)(C)CC3NC(=O)CCc2ccncc2)cc1` (stereo not drawn), for which the “hERG current change (%, negative = inhibition) at 1uM” value is on record as -35.8%.

As for `FC(F)(F)c1cc(Oc2ccc(Cl)cc2)nc(-c2ccccn2)n1`, the “hERG current change (%, negative = inhibition) at 1uM” value came out at 19%.
